Test results: ChEMBL document CHEMBL3045425, “Isolation and identification of precocenes and piperitone from essential oils as specific inhibitors of trichothecene production by Fusarium graminearum” (J Agric Food Chem, 2009)

Test system: Fusarium graminearum
Assay: Inhibition of 3-acetyldeoxynivalenol production by Fusarium graminearum in liquid culture at 3 to 30 uM at 26.5 degC measured after 48 to 144 hr by thin layer chromatography

In the case of `COc1cc2c(cc1OC)OC(C)(C)C=C2` [PROCOCENE II], the inhibition was “Active”.

Activity calls are given as the source filed them. No cut-off for these calls is given here.
